Counter-ions that a name gives are not always drawn. Like-named read-outs stand apart in the source and are kept apart here.
Test system: FXR regulated genes (SHP, CYP7α1, SREPB1c, FAS, BSEP) in HepG2 cells
[1] = listed as Compound 9, ammonium salt

CC[C@H]1[C@@H](O)C2C3CCC(C(C)CCOS(=O)(=O)O)[C@@]3(C)CCC2[C@@]2(C)CC[C@@H](O)C[C@@H]12 (stereo partly drawn) [UPF-987, 3α,7α,23-trihydroxy-6α-ethyl-24-nor-5β-cholan-23-sulphate triethyl ammonium salt]
Effect on BSEP expression: potent inducer of | Effect on SHP expression: potent inducer of | Effect on Cyp7A1 expression (ammonium salt): inhibitor of | Effect on FAS mRNA expression (ammonium salt): potent inhibition | BSEP mRNA induction [1]: 2 fold | Effect on Cyp7A1 expression [1]: potently suppressed | Effect on FAS mRNA expression [1]: potently suppressed | Effect on SREBP-1c mRNA expression [1]: potently suppressed | SHP mRNA induction [1]: 2 fold

From patent US9090652B2, “Bile acid derivatives as FXR ligands for the prevention or treatment of FXR-mediated diseases or conditions” (Intercept Pharmaceuticals, Inc., priority 2006, dated 2015)
